# The whole screen tested about 220,000 compounds, of which about 5,700 (2.6%) were called active. The inconclusive results got no clear call from the source; some entries with a clear call stand among them for comparison. Calls follow the shape of the dose curve; as a rule, active = well fitted inhibition curve with a large enough effect; inconclusive = small, poorly fitted or top-dose-only effect; inactive = no such curve, though single readings can be large or run the other way. Potencies beside an inconclusive call are fits to weak or partial responses and may not hold up.
# Target: Lysine-specific demethylase 5B (Homo sapiens) (UniProt Q9UGL1)
# Sequence of UniProt Q9UGL1 (Q9UGL1 whole entry, looked up): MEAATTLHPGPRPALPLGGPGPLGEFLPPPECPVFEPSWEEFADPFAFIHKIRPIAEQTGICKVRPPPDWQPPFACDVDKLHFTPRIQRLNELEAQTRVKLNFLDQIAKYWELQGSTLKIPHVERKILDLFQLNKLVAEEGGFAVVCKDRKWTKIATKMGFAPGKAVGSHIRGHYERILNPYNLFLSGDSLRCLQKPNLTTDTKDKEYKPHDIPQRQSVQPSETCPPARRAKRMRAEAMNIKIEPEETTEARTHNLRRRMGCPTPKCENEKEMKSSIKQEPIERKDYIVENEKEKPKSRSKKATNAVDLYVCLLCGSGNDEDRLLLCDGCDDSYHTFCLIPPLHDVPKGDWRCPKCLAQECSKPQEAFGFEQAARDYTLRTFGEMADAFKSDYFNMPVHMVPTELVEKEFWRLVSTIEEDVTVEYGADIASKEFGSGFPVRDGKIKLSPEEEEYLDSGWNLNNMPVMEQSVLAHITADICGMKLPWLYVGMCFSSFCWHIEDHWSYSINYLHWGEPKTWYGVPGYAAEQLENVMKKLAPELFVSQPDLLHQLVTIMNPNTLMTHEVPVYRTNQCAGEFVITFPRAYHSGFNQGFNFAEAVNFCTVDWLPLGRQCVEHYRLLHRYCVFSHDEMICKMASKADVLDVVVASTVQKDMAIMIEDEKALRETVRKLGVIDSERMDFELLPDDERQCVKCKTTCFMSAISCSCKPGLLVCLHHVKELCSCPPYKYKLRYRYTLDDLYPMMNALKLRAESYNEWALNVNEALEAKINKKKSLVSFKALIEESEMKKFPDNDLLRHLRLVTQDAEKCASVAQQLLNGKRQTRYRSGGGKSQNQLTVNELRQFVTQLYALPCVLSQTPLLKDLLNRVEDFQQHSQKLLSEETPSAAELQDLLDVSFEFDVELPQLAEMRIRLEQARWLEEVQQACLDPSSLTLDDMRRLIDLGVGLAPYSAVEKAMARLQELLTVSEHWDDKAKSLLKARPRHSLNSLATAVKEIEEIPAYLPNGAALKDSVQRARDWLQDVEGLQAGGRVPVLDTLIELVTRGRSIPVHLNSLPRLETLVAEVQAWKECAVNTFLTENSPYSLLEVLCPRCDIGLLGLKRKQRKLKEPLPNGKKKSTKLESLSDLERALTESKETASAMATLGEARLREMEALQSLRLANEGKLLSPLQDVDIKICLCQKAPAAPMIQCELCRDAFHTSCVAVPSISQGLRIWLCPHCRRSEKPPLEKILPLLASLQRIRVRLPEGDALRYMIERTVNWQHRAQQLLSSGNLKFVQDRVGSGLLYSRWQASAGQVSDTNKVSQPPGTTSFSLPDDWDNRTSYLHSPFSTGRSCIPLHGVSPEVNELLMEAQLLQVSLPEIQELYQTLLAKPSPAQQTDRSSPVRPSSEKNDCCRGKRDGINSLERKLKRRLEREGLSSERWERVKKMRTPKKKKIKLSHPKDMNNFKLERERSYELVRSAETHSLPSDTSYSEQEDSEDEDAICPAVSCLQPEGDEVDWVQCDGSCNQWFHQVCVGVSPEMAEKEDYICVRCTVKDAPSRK
# Assay: Primary screen for KDM5B Histone Demethylases FDH-coupled qHTS; also: nearly all actives have a fitted effect of over 70% in size
# Details: FDH-coupled NADH fluorescence (FDH is formaldehyde dehydrogenase); series mostly up to 57.7 µM
# Outline: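 Inhibition is measured as reduced NADH fluorescence generation from FDH coupling to formaldehyde release. Truncated KDM5BΔAP at 200 nM final acts on H3K4me3 peptide (12.5 µM in substrate mix) in pH 7.5 HEPES buffer with Tween-20, 30 min, room temperature.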
# Potency is read from the fitted curve at half-maximal effect; tags tell the direction and shape of the fitted curve.
row,SMILES,Potency
1,COc1ccc(C2=CC(c3ccc(N(C)C)cc3)n3nnnc3N2)cc1 (stereo not given),"inconclusive: 22.4 µM [inhibitor, partial curve, poor fit]"
2,O=C(c1ccco1)N1CCCC(c2nn[nH]n2)C1 (stereo not given),active: 22.4 µM
3,CN(Cc1cccnc1)c1ccc2ncc(Nc3ccc4c(c3)OCO4)n2n1,"inconclusive: 31.6 µM [inhibitor, partial curve, poor fit]"
4,COCCCn1c(=N)c(C(=O)NC2CCCCC2)cc2c(=O)n3ccccc3nc21,"inconclusive: 2.51 µM [inhibitor, full curve, poor fit]"
5,CCCc1noc(COc2ccc3c(C)cc(=O)oc3c2)n1,"inconclusive: 28.2 µM [inhibitor, partial curve, poor fit]"
6,CCOc1ccc(-c2nc(C#N)c(NCc3ccc4c(c3)OCO4)o2)cc1,"inconclusive: 1.78 µM [inhibitor, partial curve, poor fit]"
7,O=C(CSc1nnc(C2CC2)n1Cc1ccccc1)c1ccccc1,"inconclusive: 39.8 µM [inhibitor, single point]"
8,O=C(CSC1CCCCC1)c1ccc(O)cc1O,inactive
9,CN1CCOC(CNC(=O)Cc2ccc(F)c(Br)c2)C1 (stereo not given),inactive
10,Cc1cccc(NC(=S)N(CCC(C)C)C(C)c2cccs2)c1 (stereo not given),inactive
11,CCCCN(C)CCNC(=O)c1cc2c(-c3ccccc3F)nn(C)c2s1,"inconclusive: 25.1 µM [inhibitor, partial curve, poor fit]"
12,CCOC(=O)C1(Cc2ccccc2F)CCCN(C(=O)c2c(C)nc3sccn23)C1 (stereo not given),inactive
13,COc1ccc(C2Cn3nnc(-c4noc(-c5sccc5C)n4)c3CO2)cc1 (stereo not given),"inconclusive: 10 µM [inhibitor, partial curve, poor fit]"
14,CN1CC(=O)N(C2CCNC2)Cc2c1ncnc2N1CCCN(Cc2ccccc2)CC1 (stereo not given),"inconclusive: 44.7 µM [inhibitor, partial curve]"
15,CC1Cc2ccccc2N1S(=O)(=O)c1nnc(NC(=O)c2ccccc2Br)s1 (stereo not given),"inconclusive: 35.5 µM [inhibitor, single point]"
16,FC(F)(F)c1ccc(N2C3CCC2CN(CC2CCCC2)C3)cc1,inactive
17,CN1c2cc(C(=O)NCc3ccccc3Br)ccc2C(=O)N2CCCCC21 (stereo not given),"inconclusive: 20 µM [inhibitor, partial curve, poor fit]"
18,COc1ccc2c(c1)CCc1c(C(=O)Nc3c(C)nn(Cc4ccccc4Cl)c3C)noc1-2,"inconclusive: 1.58 µM [inhibitor, partial curve, poor fit]"
19,CCOc1ccccc1NC(=O)CCn1cnc2c1c(=O)n(C)c(=O)n2C,inactive
20,Cc1cc(=O)oc2cc(NC(=O)Cc3ccccc3Cl)ccc12,"inconclusive: 14.1 µM [inhibitor, partial curve, poor fit]"
21,CCCCN(CC)CCCNC(=O)c1cn(CC(C)C)c(=O)c2c1c1ccccc1n2C,"inconclusive: 22.4 µM [inhibitor, partial curve, poor fit]"
22,CCCCC1CCC(C(=O)NNC(=O)c2ccc(Cl)cc2)CC1 (stereo not given),inactive

row,SMILES,Potency
1,Cc1ccc(-c2csc(-c3cc4c([nH]c3=O)CC(c3ccco3)CC4=O)n2)cc1 (stereo not given),"inconclusive: 28.2 µM [inhibitor, partial curve, poor fit]"
2,O=S(=O)(c1ccc(Cl)cc1)c1nc(-c2ccccc2Br)oc1N1CCOCC1,"inconclusive: 28.2 µM [inhibitor, partial curve, poor fit]"
3,CN(C)Cc1nnc(C2CC(Nc3cncc(C(=O)N(C)C)n3)C2)n1C (stereo not given),active: 28.2 µM
4,COc1ccc(-c2c3c(=O)n(CCCN4CCOCC4)ccc3nc3nc(C)nn23)cc1,inactive
5,COc1ccc(-c2cc3c(=O)n(CCNC(=O)c4ccc(C#N)cc4)ccn3n2)cc1,"inconclusive: 8.91 µM [inhibitor, partial curve, poor fit]"
6,CCCNC(=O)CSc1nc(C)nc2sc3c(c12)CCC3,inactive
7,COc1ccccc1C(=O)Nc1ccc(-c2nc3ncccc3o2)cc1,inactive
8,O=C(c1cccc(F)c1)N1CCN(c2cc(-c3cccs3)[nH]n2)CC1,inactive
9,CC(C)NC(=O)N1CCNc2cnc(Nc3cccc(F)c3)nc2C1,active: 31.6 µM
10,COc1ccccc1CNC(=O)Cn1c(=O)ccc2cc(S(=O)(=O)N3CCC(C)CC3)ccc21,"inconclusive: 35.5 µM [inhibitor, single point]"
11,COc1cc(NC(=O)NC[C@H]2O[C@@H](CO)[C@@H](O)[C@H]2N2CCN(c3ccccc3)CC2)cc(OC)c1,"inconclusive: 28.2 µM [inhibitor, partial curve]"
12,CCCc1noc(-c2ccn3c(CNC(=O)c4ccccc4OC)nnc3c2)n1,active: 3.16 µM
13,CCOc1ccc2nc(N(Cc3cccnc3)C(=O)c3ccc4c(c3)OCCO4)sc2c1,"inconclusive: 2.51 µM [inhibitor, full curve, poor fit]"
14,O=c1c2ccccc2cnn1CN1CCN(S(=O)(=O)c2ccccc2Cl)CC1,inactive
15,Cc1cc(C)n(Cc2ccc(C(=O)NCC3Cn4cccc4CN3Cc3ccccc3)o2)n1 (stereo not given),active: 31.6 µM
16,CC(C)(C)c1ccc(-c2oc(NC(=O)CCl)c(C#N)c2-c2ccc(C(C)(C)C)cc2)cc1,"inconclusive: 31.6 µM [inhibitor, partial curve, poor fit]"
17,Cc1cc(C)c(CN2CCC3(CCCN(C)C3=O)C2)c(-n2cccn2)c1 (stereo not given),inactive
18,COc1cc(/C=C(/C#N)C(=O)c2ccccc2)cc(Cl)c1OC(C)C,"inconclusive: 39.8 µM [inhibitor, single point]"
19,CCO[C@H]1CN(Cc2cnc(SCc3ccccc3)nc2)C[C@@H]1O,inactive
20,CC1(C(=O)Nc2ccc(F)c(Cl)c2)COCc2cnc(Nc3ccccc3)nc21 (stereo not given),"inconclusive: 56.2 µM [inhibitor, single point]"
21,C[C@H](O)[C@@H]1CN2CCc3c([nH]c4c(-c5ccccc5)cccc34)[C@@H]2C[C@@H]1N(C)C(=O)c1ccco1,"inconclusive: 28.2 µM [inhibitor, partial curve, poor fit]"
22,COc1ccccc1C(=O)N1CCCn2nc(C)c(-c3ccccc3N3CCCC3)c21,active: 12.6 µM

row,SMILES,Potency
1,Cc1ccc(C(=O)Nc2ccc3c(c2)N(C)C(=O)c2ccccc2S3)cc1F,"inconclusive: 28.2 µM [inhibitor, partial curve, poor fit]"
2,COc1ccc(CCC(=O)N2CCC(Cc3nc(C4CC4)n[nH]3)CC2)cc1,active: 20 µM
3,C=Cc1ccc(Cn2c(=O)n(-c3ccccc3C)c(=O)c3c4c(sc32)CN(C(C)=O)CC4)cc1,"inconclusive: 1.41 µM [inhibitor, full curve, poor fit]"
4,COC(=O)c1ccc(COc2ccccc2Br)cc1,inactive
5,c1csc(-c2nc3ccccc3s2)c1,"inconclusive: 28.2 µM [inhibitor, partial curve, poor fit]"
6,CCOC(=O)c1c(C)[nH]c(C)c1S(=O)(=O)N(C)CC(=O)Nc1cccc(C(C)=O)c1,inactive
7,COc1ccc2[nH]c3c(c2c1)CCN(C)C31CCN(C(=O)c2ccc(C)nc2)CC1,"inconclusive: 39.8 µM [inhibitor, partial curve, poor fit]"
8,O=C(Cn1cc(SCc2cccc(C(F)(F)F)c2)c2ccccc21)N1CCCCCC1,"inconclusive: 28.2 µM [inhibitor, single point]"
9,COc1ccc(-c2nc(C(=O)N3CCCC3)n3ccccc23)cc1,"inconclusive: 17.8 µM [inhibitor, partial curve, poor fit]"
10,COc1cccc2cc(-c3nc(-c4cccs4)no3)c(=O)oc12,inactive
11,CN(C)C[C@@H]1CN(C2CCOCC2)C[C@H]1NC(=O)c1ccc2ccccc2n1,"inconclusive: 14.1 µM [inhibitor, partial curve, poor fit]"
12,COc1cc(NC(=O)CCc2c(C)nc3c(c(C)nn3-c3ccccc3)c2C)cc(OC)c1OC,"inconclusive: 2.24 µM [inhibitor, full curve, poor fit]"
13,CN1C(=O)C2CCCCN2c2ccc(C(=O)NCc3ccccc3Br)cc21 (stereo not given),"inconclusive: 3.16 µM [inhibitor, partial curve, poor fit]"
14,COc1ccccc1CNC(=O)Nc1ccc2c(c1)N(C)C(=O)c1ccccc1S2,"inconclusive: 14.1 µM [inhibitor, partial curve, poor fit]"
15,O=C(CSc1nc2c([nH]c3ccccc32)c(=O)n1-c1ccc(F)cc1)N1CCCCCC1,"inconclusive: 1.26 µM [inhibitor, partial curve, poor fit]"
16,CCc1nc2c(c(-c3ccc(OC)cc3)n1)CN([S+](=O)([O-])c1cccc(OC)c1)CC2,"inconclusive: 56.2 µM [inhibitor, partial curve, poor fit]"
17,COc1ccc(-c2nc(C(C)C)nc3c2CCN(C(=O)c2ccc(F)cc2)CC3)cc1,inactive
18,CN1Cc2c(cc(N3CCOCC3)nc2-c2cnn(C)c2)C1=O,active: 39.8 µM
19,CC1(C)Cc2nc(N3CCOCC3)ncc2C(NC(=O)NC(C)(C)C)C1 (stereo not given),"inconclusive: 28.2 µM [inhibitor, single point]"
20,COc1ccc(CSc2nc3ccncc3n2Cc2nc(-c3ccc(OC)c(OC)c3)oc2C)cc1,"inconclusive: 44.7 µM [inhibitor, single point]"
21,Cc1ccccc1C(=O)Nc1ccnn1C1CCN(C(=O)C2(N)CCC2)CC1,"inconclusive: 1.78 µM [inhibitor, partial curve, poor fit]"

# Source: PubChem BioAssay AID1347165 (National Center for Advancing Translational Sciences (NCATS), 2019)
